B1: CPEB3 Ribozyme (parent)
chain: UAACAGGGGGCCACAGCAGAAGCGUUCACGUCGCAGCCCCUGUCAGAUUCUGGUGAAUCUGCGAAUUCUGCUGUAUAUCUC

Read counts are not given, so values of variants with three or more changes are uncertain.

The variants in the data set derive from B1. The data set is described as follows: self-cleavage, relative activity (ratio to wild type); higher = more cleavage; in vitro, sequencing. A digest of the protocol:
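Relative activity compares each variant's cleaved/total read fraction with that of the unmutated ribozyme. To get these fractions, barcoded CPEB3 ribozyme libraries from rounds of error-prone PCR were transcribed with T7 RNA polymerase for 5 hours at 37°C and then given 15 min of DNase I treatment before EDTA was added. The RNAs were reverse transcribed with template switching and sequenced on Illumina, and DNA sequencing linked barcodes to variants. A minimum of 5 reads applied, and three batches were averaged.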
As for A18U C38U U60A G73A U80G, the self-cleavage worked out at 0.07. Under A18U U31C A45U A47G A77U stands 0.23. A18U U25C G42A U49A U60C U66C: the self-cleavage came to 0.05.

As for A18G U51A U67A, the self-cleavage came out at 0.4. Under A18G U31G U43C U66C U80G stands 0.08. Under A18U A20G A56G A64U U80A stands 0.1. Under A18U U31C A47G U51C stands 0.14; under A18U C23A A45U, 0.28; under A18U A20U U26C A35G U60C C81A, 0.04. A18G G42C A57G A65G: the self-cleavage was 0.17. Consider A18U U26C U67A, for which the self-cleavage was determined as 0.15. Under A18G U41A U48A stands 0.22. Under A18U A65U U69A stands 0.11. Consider A18U A28G C39U, for which the self-cleavage was 0.66. Under A18U A28G A45G U67A stands 0.26; under A18G U43C A64G U69C, 0.81; under A18G U41C U49C G63U A65C U78C, 0.08. Under A18U U51C U67C stands 0.31; under A18U U54A A57G, 0.25; under A18U U26C A56G U60C A65G, 0.1. Under G19A A45U A64U stands 0.15; under A18G A45U U72G, 0.16.

A18U A64G U66A U67C: the self-cleavage amounted to 0.2. Under A18U C23A A45U U54C U80A stands 0.23; under A18U U26C G36A, 0.18.

For A18U U31C U54C, the self-cleavage came to 0.16. As for A18U A20C G33A U69A U78C, the self-cleavage stood at 0.11.

Turning to A18U U31C U41C A47G C71G, the self-cleavage amounted to 0.12.

For A18U A35G G42A U58C, the self-cleavage was found to be 0.14. Under A18U A35G C37A stands 0.38; under A18U A47G U66C U80C, 0.32; under A18G U26C A35U U41A U54C U72A U78C, 0.06. Under A18G G24A C81U stands 0.31; under A18G G19A G22A U72A, 0.18; under A18G U26C A35G U41C U49A G63A C68A, 0.15. Under A18U U26C A35G C37A C71U stands 0.14; under A18G U25C U31C U66C C71U A77G, 0.16. In the case of A18G U60C A64G U67C A77U, the self-cleavage turned out to be 0.32.

In the case of A18G C29U U60C U66C, the self-cleavage worked out at 0.14. Under A18U U25C U67C stands 0.14; under A18G U25C A65G U72C, 0.35. Under A18U U54C G73U stands 0.43; under A18U U49C U54C, 0.13.

As for A18G U26C U31A A64U U78C, the self-cleavage turned out to be 0.06.

A18G U26A A57G: the self-cleavage was 0.42. Under A18G U41A U60C G63A stands 0.06; under A18U U25C U60C U78C, 0.24; under A18U A35G U41C A45C U58A U76C, 0.07. Consider A18G G33C U58C, for which the self-cleavage amounted to 0.12.

As to A18U A35G U67A U80A, the self-cleavage stood at 0.89. On to A18U A35U U78C, for which the self-cleavage stood at 0.15.

Consider A18U U25C U41A, for which the self-cleavage is 0.06. Under A18G C59A U72C stands 0.08; under A18U G33A C37U U48C U72A U76A, 0.12. Under A18G U69A U80C stands 0.47. Under A18G U25C A45G A47G U60A U74C stands 0.2; under A18G U26C A35G U72A U78C, 0.26.

As to A18U U43A U67A U72A A75G, the self-cleavage is 0.26. Under A18U A28U U48C U51G stands 0.18. Under A18G U54A A57G stands 0.41. Under A18U A20U A35U G63A stands 0.1; under A18U A28G U41C A64U G70U U74C, 0.07. As for A18U U54C U60A, the self-cleavage was 0.14. Under A18U G52A A56U stands 0.22; under A18U A28U A35G A45G, 0.7. Under A18G U41A U76C stands 0.25; under A18U A20U U31A U60C U66C U69G U76C, 0.08; under A18G U51A U74A, 1.02. As for A18G A47G U54C U58A, the self-cleavage came out at 0.1. Under A18G G24U C32U A47G A64U stands 0.05; under A18G U26C G33C A64G, 0.09.

A18G U41G G55A A64G U74A: the self-cleavage is 0.08. As for A18U G19U A28G, the self-cleavage amounted to 0.13.

Take A18U G61A U72A: the self-cleavage was 0.26. Under A18U C32U C34A U41A A77G stands 0.05; under A18U C29U A47G U51A A65U U67C, 0.13; under A18U A20G U48C A57G U72C U78C, 0.08. Under A18G U25C U41A stands 0.23; under A18U U54C U76A, 0.51; under A18U C32A U48C U78A, 0.03. Under A18U A35G C38A U48A U54A C71A stands 0.05; under A18G U25C U41A A65G, 0.44; under A18G U58C A64G, 0.33. With A18U U58G U69C, the self-cleavage turned out to be 0.13. Under A18U A20G A56U stands 0.22; under A18U A21G A56U, 0.11. As to A18G G52U U54C U69A, the self-cleavage was 0.54. Under A18G U54C U78C stands 0.73; under A18U U25A A56G A57G A75G, 0.02. Under A18G U41C U58C A64G A75G U80G stands 0.12. Under A18G A64G A75U stands 0.64; under A18G A64U A75U, 0.35.

As for A18G G24A U58C, the self-cleavage is 0.11. Under A18G U51G G52C stands 0.57.

For the variant A18U C34U U41A A45U U66C U69A A77U, the self-cleavage is 0.03. As for A18G G33C A56G U76C, the self-cleavage is 0.06.

In the case of A18U G22U U58A U78C, the self-cleavage worked out at 0.15. Consider A18U A20G U43A G63A, for which the self-cleavage came out at 0.26.

As for A18G U51A U54C U69A U80A, the self-cleavage was 0.77. Consider A18U U25C A35G U48C U80C, for which the self-cleavage turned out to be 0.44. Under A18G U26C U41A G42A stands 0.29; under A18U U31A C32A A65G, 0.07. Under A18G C38A U76A A77U stands 0.08; under A18G U54A A56G U66C U69G U74A, 0.32; under A18U U58A U78A, 0.13. Under A18U U31C G42C stands 0.19.

As for A18G C37A U51A A65G U67C, the self-cleavage stood at 0.05. Under A18G A57G A64G U80C stands 0.61; under A18U A20G A45U, 0.15; under A18U A28G A35G A65G U80C, 0.24. Under A18G C37A A56G C62A A65G U67C U69A stands 0.05; under A18U U25A A64G, 0.23. Under A18G G46A A65G stands 0.09. With A18U U25C U43A, the self-cleavage came out at 0.3. Under A18G U26A C34G A35U stands 0.05. Under A18U A20G U31C C32U U67C U72C stands 0.1; under A18G U43A A47G U58C C62A, 0.18.

For the variant A18G G22U A28G U66C, the self-cleavage turned out to be 0.1. Under A18G U43C A77G stands 0.44. For the variant A18U A28G A47G, the self-cleavage was found to be 0.39. As for A18G G55A U72G U80A, the self-cleavage turned out to be 0.59. Under G19A A20C A21C C32U U58C U69A stands 0.07; under A18U A28C U31A U78C, 0.04. Under A18U U31C C44A A64G stands 0.16; under G19A A28G A35G U41C, 0.17. For A18G U51A U78C, the self-cleavage amounted to 0.59. Under A18G C32A A45G stands 0.24; under A18G A64C U80C, 0.16. Under A18U A57G U66A U69A stands 0.32. Under A18U A56G U72A stands 0.16; under A18G U26C A28G G33C A35G, 0.06. As for A18G U51C U58C U67A, the self-cleavage amounted to 0.14. Under A18G U49A U54C stands 0.24; under A18U A21G U25C A45G U49A U60C, 0.06. Under A18U U25C A35G A45U stands 0.09; under A18G U41G U48C, 0.15.

As for A18U A57G U58A A65G G73A, the self-cleavage is 0.18. In the case of A18G C29U A56U, the self-cleavage was 0.09. In the case of A18U C23U U31A U74C, the self-cleavage came to 0.05. Under A18U U26C U51A U67C U72C stands 0.12. Under A18U A35G U41A stands 0.23; under A18U C29G C59A, 0.18. Under A18G G63U C68A U69C stands 0.4. A18G G22U U41A: the self-cleavage was determined as 0.19.

As for A18G A45G U74A, the self-cleavage was 0.68. Under A18U A28C U43A G63U A77G stands 0.13. Under A18G A47G U51C stands 0.5; under A18G U51C U54C, 0.17. In the case of A18U U25C C40A C50U, the self-cleavage was determined as 0.07. Under A18U U58C U80C stands 0.17; under A18G C29U U41A C44G U48C, 0.29; under A18G A45U U49C A65G, 0.15. On to A18U G30A U67C U69C, for which the self-cleavage came to 0.13. Under A18U A65U C81A stands 0.42; under A18G G24A U51A, 0.22; under A18U U26C G42A U43C U48C U69C, 0.08. Under A18U A21G U41C A64C stands 0.08; under A18G A65G U67C U72A, 0.12; under A18G U26A U58C U60C U67A U72A, 0.1. Under A18U U26G U54A U58C U78C stands 0.01; under A18U U25A A35U G61A, 0.04; under A18G U58C U69A, 0.4.

As for G19A A45U U48C, the self-cleavage was determined as 0.09. Under A18G C39A U69A stands 0.17; under A18G U43C A45C A64U U78C, 0.04.

Regarding A18U C32U A47G, the self-cleavage was 0.15. For A18U A45U U66C U69C, the self-cleavage is 0.1.

These data come from the RNAGym collection of RNA variant scans (doi:10.1093/nar/gkz1192).
